Laboratory results published in the supplement of paper PMC11417369.
This is one part of the list.

system: PfAP2-HC AP2 domain (GST-tagged); assay: gcPBM binding intensity (ln(normalized median fluorescence intensity)); higher = stronger DNA binding
Method in brief: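 Binding of GST-tagged P. falciparum DNA-binding domains, expressed in E. coli and used at about 25 μg on average, was carried out for 1 h in 1× PBS containing 1% milk, 0.2 mg/ml BSA, 0.5% salmon testes DNA and 0.03% Triton X-100. The target was an Agilent 4 × 180k array of primer-extended double-stranded 36-bp intergenic genomic probes plus negative controls, read with Alexa488 anti-GST antibody at 488 nm. Binding intensity is the highest Masliner-normalised natural-log median intensity across replicate spots of either probe orientation.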

Sequence	gcPBM binding intensity (ln)
ATAAATACATTAAAATGTACATAAAAATATTACTGG [XGTACX_site1484]	9.73
TATAACAAGTAATGGTGTACATTATATTATGTAATA [XGTACX_site2761]	9.73
CATATGCGTCTTGCCTTGCACACTTTTATGAAAAAA [CACACA_site2055]	9.75
TAATACTTAAAATGTTGTACATAATAATTTTATATT [XGTACX_site5403]	9.51
TATATATATATATATACATGCATTTCTCATGTACAT [TGCATGCA_site621]	9.82
TTTTATATCTACCTTTGTACATATTTATTTTTTTTA [XGTACX_site7872]	9.94
TTCATAAAAAATGTAGTGCATTGAATAAAATTACAT [GTGCAC_site9393]	9.59
TTAATTTTGGTAAATGCATGTAATTAAAAATAAAAA [TGCATGCA_site234]	9.45
ATATTGAAATTAAAAAAATATATGAACAAATGATGA [CACACA_negctrl_site602]	9.72
TAAATTTTTTTTTTTTGTACACAAAAATATAATATT [XGTACX_site8151]	9.5
TTATGTAGTATAATGAGTACTAAATATAGATATGTT [XGTACX_site6335]	9.7
AATATTATAAATGATACACACTTAAAATACAGACAC [CACACA_site8868]	10.3
AATTACTTAAATTATTGTACCCTAATGTTAATTTCA [XGTACX_site825]	9.59
ATACATTCAAAATATACACACATATATCTATAATAT [CACACA_site6576]	9.98
TTTCTTTAGTAGAATGTAAAAAATATAATCTTCTTA [TGCATGCA_negctrl_site298]	9.23
TTTATAAAAAGCATAACACACACATGTCAATATATA [CACACA_site8286]	10.1
AACATACGACAATACGCACACATATAAGTACATATT [CACACA_site8584]	10.5
TTCAATTATATTCTTTGTACGAATCTTCTATAAATT [XGTACX_site4346]	9.71
GCTTATGCTCAATATTGTACTTTTTTTATTTATTCA [XGTACX_site8863]	9.81
TACTTCTTTTTTATTTATTTTACTTTTTATTCTGTA [CACACA_negctrl_site772]	9.82
ATTTAATTTTTTTTTAAACACACATTTTTTTATTTA [CACACA_site8880]	9.81
ATATATATATATATATGTACATATACACATGTGTGC [XGTACX_site168]	10.1
AAATAAATAATAAATAAATAAATAAAATACCAAATA [GTGCAC_negctrl_site620]	9.84

Sequence	gcPBM binding intensity (ln)
TATAAATATGTGTATACACACCTGATAAAGGTATAT [CACACA_site7283]	10
AAAATTATTAAATATGTACACACGTACATTTTATAA [CACACA_site8750]	9.5
CACGCATACAGACACACACACACACCCATATATATA [CACACA_site636]	10.6
TTAAAAATAAAACAAAGTACTCAAGTTATTGTCTTT [XGTACX_site1584]	9.53
TATGATATGTATGGAAGTACGAAGAGGGATGATCAG [XGTACX_site1677]	9.66
GTGAATCCTAAGTGTACACATCTTACAGATATATAT [CACACA_site4836]	9.85
TGAAATAAAATTTGTACACACATATATATATATATA [CACACA_site586]	9.95
ATTTTCAAATTAAAATGTACAAATGAAAGAAAGGGA [XGTACX_site7048]	9.75
GCACAAATCATCAAATGTACAGAAAATGCTGTCAAT [XGTACX_site5037]	9.52
TTCCTTCATTGGAAAAGTACACAATATTGTCGTTTA [XGTACX_site8057]	9.64
ATATAGGTATAATACACACACTAATATGTAACTGTA [CACACA_site7011]	10.1
CGTAAATTTTTCTAAGTGCATGTTAATTTTTCAATT	9.59
TAAATACCTATATGGCGTACTATTATCATAGTATAT [XGTACX_site5423]	9.8
TATTTATTATGATACTCATATTATTCTATGATTAAA [GTGCAC_negctrl_site486]	9.47
ACATTCTATACATACACACCCACACCCAAAAAAAAA [CACACA_site863]	10
TATATATCAATATACACACACACATATTTATTTATA [CACACA_site6858]	10.4
AAAAATATAATATAATGTACACATAAACAAAAAAAA [XGTACX_site3658]	9.83
TTTCTTAAATATATGCGTACTCAAAATTGTTCTACA [XGTACX_site7995]	9.26
AACAGACATACATACACACATACATACAGACATACA [CACACA_site1942]	10.5
TAAAATAAAACAAACACACACACACCGACACAAAAA [CACACA_site5993]	10.8
ATATATATATATTTCGCACACATAATCTTATTAAAT [CACACA_site2579]	9.78
ATGTATCATAAGAACTGTGTGGTTACAGACACGAAC [GTGCAC_negctrl_site416]	9.98
TACTATGCCCCATATAAACACACAAATAAAAAGAAT [CACACA_site8857]	9.85

Sequence	gcPBM binding intensity (ln)
TATAAACCTACATACACACATACAATAAGTAAAATG [CACACA_site1921]	10
AACTATATATATAATTCACACATGTTTTAAAATTTT [CACACA_site4971]	9.82
TATAATTAATTAGAAGTGCATTAGGTAACAACTGTC [GTGCAC_site9746]	9.68
CTATGCATTTATAGTGCATGTAAAATATAAGATAAT [TGCATGCA_site71]	9.58
AACGCAGTTTAATATACACACCAAAAAAAAAAAAAG [CACACA_site5643]	9.66
TTTCCTTTTTTAATATGTACACATATTATTATATCT [XGTACX_site3079]	9.85
ATATATTCTTATTGCTGTACACATATTTTCTAAAAA [XGTACX_site4851]	9.69
TGTTACATATTATAAATACATTAACTATTATATGTA [CACACA_negctrl_site1735]	9.49
TATATATATATATATTGTACATATTGTATATATTGT [XGTACX_site3212]	9.6
TTTATAAAAAATTTTTTTTTTTTTTTTTAAATATAT [CACACA_negctrl_site146]	9.29
TATATATATATTTATACACACATTAGTGTATCCATG [CACACA_site5609]	10.3
TTATATTAAACAAACACACACATATATATATATATA [CACACA_site2382]	9.88
TTAACAAATGGACACACACACACACCCAAAAAAAAA [CACACA_site4443]	10.7
TTATTTTTTCAAGAATGTACTTACGAATTGTCGTAT [XGTACX_site1363]	9.51
ATCAATACACATATATGTACATATAATAATTATCTT [XGTACX_site662]	9.78
CAAAAAAACAAACACACACACACACCCATATATATA [CACACA_site3653]	11.5
TAATTACCATATGGTACACACATATATATATGTATA [CACACA_site3487]	9.93
TTTTTTTTTTGTAGTTGTACGAACTAGCTATTTATG [XGTACX_site692]	9.62
TTGGCATACAGACACACACACACACGCCCACATATA [CACACA_site6425]	10.7
ATATATATATATATATGTACATATATATATTTTTTA [XGTACX_site5987]	10.1
TTTTTTTTTTATTCTACACACATATGTTTTTATATG [CACACA_site182]	10
TATATATATATATGTTGTACTTTTAATTTAAATGTA [XGTACX_site4239]	9.43
TGTTATTAAAACGTGACACACAATATATATATATAT [CACACA_site3539]	9.73

Sequence	gcPBM binding intensity (ln)
TTTTTTTTTTTTTTTTGTACACATAGTAAAAATTAA [XGTACX_site2410]	9.19
TTTTTTTTTAAGCAAAGGAAATCAAAATAAAAATAT [CACACA_negctrl_site719]	9.3
TTATAAATTATATATATGACCAATAATTGTGAGCAT [CACACA_negctrl_site725]	9.53
AAATAGGGAATTTATGCACACAGTTAAGGGGGAAAA [CACACA_site2071]	10.1
ATATATTATTATATATGTACTTATTTATAAATGATT [XGTACX_site7597]	9.47
AATAAATTAATAAGGTGTACATAAATAATTTATATA [XGTACX_site8278]	9.72
TAAATATAAACACAAACACACACATATATATATATA [CACACA_site7978]	10.3
ATTCAAAAGGTTTAATGTACGTGATGTTTCACAAAT [XGTACX_site784]	9.55
CATACTCTACATAGATGTACTCATTTAAAAAAAAAA [XGTACX_site6945]	9.38
ATTTTTTTTTTTTTTTTTTTTTTTTTCTCTCTCACT [CACACA_negctrl_site1046]	9.22
ATAGAAGGACATATAACACACATATATTATAAGTAT [CACACA_site5461]	10
TGTCGACATGTAGGTAGTACTATTAAAAATAATGAT [XGTACX_site3849]	9.6
AAATATATATATATAATACACACTAAAGTAACATAA [CACACA_site2870]	10
GGATGATTAAGGGGGACACACGTTTATATATTTATA [CACACA_site4342]	9.91
TTTATATTTCTCTTTAGTACATATTATATTCTTTTA [XGTACX_site1618]	9.72
AATGAAAATAAATTAACACACAATTTTAATATTGTT [CACACA_site1306]	9.62
TGATAGCTAGCTATATGTACATATATATATATATAT [XGTACX_site393]	9.54
CTTTCGGTTGGAGAGGTGCGCTTCTCCTTTATAATA	9.61
TACACAAAATTTAAATGTACATTAAATATATGATGT [XGTACX_site2140]	9.56
AAACATCATAAATATACACACATATATATATATATA [CACACA_site620]	9.67
